Data: the supplement of paper PMC8728848
The list shows a part of the results.

How the values were obtained:
Assay in all cases: glycan array binding signal (z-score within array); higher = stronger binding
Details in all cases: glycan notation: IUPAC condensed, linker removed
[1] = target: Gal(b1-4)GalNAc(b1-3)[Fuc(a1-2)]Gal(b1-4)GlcNAc
Outline: (§1)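 Glycan array data came from 3228 arrays in the Consortium for Functional Glycomics database, and only arrays with an available protein sequence were kept. Glycan names were put into IUPAC-condensed notation, and columns mapping to the same glycan were averaged. The binding signal is a within-array Z-score, averaged across arrays of one protein sequence run at different concentrations or buffers and across linkers. A negative Z-score can be read as non-binding.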

[2] = target: Gal(b1-4)Glc
Outline: as §1

[3] = target: Gal(b1-4)Glc6S
Outline: as §1

[4] = target: Gal(b1-4)GlcNAc
Outline: as §1

[5] = target: Gal(b1-4)GlcNAc(a1-6)Gal(b1-4)GlcNAc
Outline: as §1

[6] = target: Gal(b1-4)GlcNAc(b1-2)Man
Outline: as §1

[7] = target: Gal(b1-4)GlcNAc(b1-2)Man(a1-3)Man(b1-4)GlcNAc(b1-4)GlcNAc
Outline: as §1

[8] = target: Gal(b1-4)GlcNAc(b1-2)Man(a1-3)[Gal(b1-4)GlcNAc(b1-2)Man(a1-6)]Man(b1-4)GlcNAc(b1-4)GlcNAc
Outline: as §1

[9] = target: Gal(b1-4)GlcNAc(b1-2)Man(a1-3)[Gal(b1-4)GlcNAc(b1-2)Man(a1-6)]Man(b1-4)GlcNAc(b1-4)[Fuc(a1-6)]GlcNAc
Outline: as §1

[10] = target: Gal(b1-4)GlcNAc(b1-2)Man(a1-3)[Gal(b1-4)GlcNAc(b1-2)Man(a1-6)][Gal(b1-4)GlcNAc(b1-4)]Man(b1-4)GlcNAc(b1-4)[Fuc(a1-6)]GlcNAc
Outline: as §1

[11] = target: Gal(b1-4)GlcNAc(b1-2)Man(a1-3)[Gal(b1-4)GlcNAc(b1-2)Man(a1-6)][GlcNAc(b1-4)]Man(b1-4)GlcNAc(b1-4)[Fuc(a1-6)]GlcNAc
Outline: as §1

[12] = target: Gal(b1-4)GlcNAc(b1-2)Man(a1-3)[GlcNAc(b1-2)Man(a1-6)]Man(b1-4)GlcNAc(b1-4)GlcNAc
Outline: as §1

[13] = target: Gal(b1-4)GlcNAc(b1-2)Man(a1-3)[GlcNAc(b1-4)][Gal(b1-4)GlcNAc(b1-2)Man(a1-6)]Man(b1-4)GlcNAc(b1-4)GlcNAc
Outline: as §1

[14] = target: Gal(b1-4)GlcNAc(b1-2)Man(a1-3)[Man(a1-6)]Man(b1-4)GlcNAc(b1-4)GlcNAc
Outline: as §1

[15] = target: Gal(b1-4)GlcNAc(b1-2)Man(a1-6)Man(b1-4)GlcNAc(b1-4)GlcNAc
Outline: as §1

[16] = target: Gal(b1-4)GlcNAc(b1-2)Man(a1-6)[GlcNAc(b1-2)Man(a1-3)]Man(b1-4)GlcNAc(b1-4)GlcNAc
Outline: as §1

[17] = target: Gal(b1-4)GlcNAc(b1-2)Man(a1-6)[Man(a1-3)]Man(b1-4)GlcNAc(b1-4)GlcNAc
Outline: as §1

[18] = target: Gal(b1-4)GlcNAc(b1-2)[Gal(b1-4)GlcNAc(b1-4)]Man(a1-3)[Gal(b1-4)GlcNAc(b1-2)Man(a1-6)]Man(b1-4)GlcNAc(b1-4)GlcNAc
Outline: as §1

[19] = target: Gal(b1-4)GlcNAc(b1-2)[Gal(b1-4)GlcNAc(b1-4)]Man(a1-3)[Gal(b1-4)GlcNAc(b1-2)[Gal(b1-4)GlcNAc(b1-6)]Man(a1-6)]Man(b1-4)GlcNAc(b1-4)GlcNAc
Outline: as §1

[20] = target: Gal(b1-4)GlcNAc(b1-2)[Gal(b1-4)GlcNAc(b1-4)]Man(a1-3)[GlcNAc(b1-4)][Gal(b1-4)GlcNAc(b1-2)Man(a1-6)]Man(b1-4)GlcNAc(b1-4)GlcNAc
Outline: as §1

[21] = target: Gal(b1-4)GlcNAc(b1-2)[Gal(b1-4)GlcNAc(b1-4)]Man(a1-3)[GlcNAc(b1-4)][Gal(b1-4)GlcNAc(b1-2)[Gal(b1-4)GlcNAc(b1-6)]Man(a1-6)]Man(b1-4)GlcNAc(b1-4)GlcNAc
Outline: as §1

[22] = target: Gal(b1-4)GlcNAc(b1-2)[Gal(b1-4)GlcNAc(b1-6)]Man(a1-6)[Gal(b1-4)GlcNAc(b1-2)Man(a1-3)]Man(b1-4)GlcNAc(b1-4)GlcNAc
Outline: as §1

B1: AFCNVH (Aspergillus fumigatus) (protein)
chain: MSLRGFHTTCDTIVLKDKHILSSRCKRPDGTYSFSEIDLNDCLGNNNGKFVWGGESFVDSASQVNLALEGGEGRPMLHAQLNDWHGSVQSASVNLGECIQNEAGGLEYMHC
glycan array binding signal (z-score) [1]: -0.351
glycan array binding signal (z-score) [2]: -0.293
glycan array binding signal (z-score) [3]: -0.545
glycan array binding signal (z-score) [4]: -0.134
glycan array binding signal (z-score) [5]: -0.232
glycan array binding signal (z-score) [6]: -0.309
glycan array binding signal (z-score) [7]: 0.697
glycan array binding signal (z-score) [8]: -0.443
glycan array binding signal (z-score) [9]: -0.391
glycan array binding signal (z-score) [10]: -0.023
glycan array binding signal (z-score) [11]: 0.634
glycan array binding signal (z-score) [12]: -0.554
glycan array binding signal (z-score) [13]: -0.072
glycan array binding signal (z-score) [14]: -0.234
glycan array binding signal (z-score) [15]: -0.488
glycan array binding signal (z-score) [16]: -0.378
glycan array binding signal (z-score) [17]: -0.189
glycan array binding signal (z-score) [18]: -0.182
glycan array binding signal (z-score) [19]: -0.296
glycan array binding signal (z-score) [20]: -0.411
glycan array binding signal (z-score) [21]: -0.362
glycan array binding signal (z-score) [22]: -0.437
